# Results taken from the DeepSol protein solubility set.
# Experiment: soluble on expression in E. coli; label from the status in PepcDB or PDB records
sequence,measurement,value
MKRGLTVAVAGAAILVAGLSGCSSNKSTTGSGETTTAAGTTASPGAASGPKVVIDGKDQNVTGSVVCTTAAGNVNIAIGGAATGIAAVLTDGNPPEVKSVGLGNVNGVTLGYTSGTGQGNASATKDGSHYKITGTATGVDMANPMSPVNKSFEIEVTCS,soluble on expression in E. coli,soluble
